{"source": "ChEMBL document CHEMBL4888484", "about": "“Replenishing the malaria drug discovery pipeline: Screening and hit evaluation of the MMV Hit Generation Library 1 (HGL1) against asexual blood stage Plasmodium falciparum ,using a nano luciferase reporter read-out” (2022)", "note": "Out of some 150,000 compounds screened, about 540 (0.36%) showed an effect of 50% or more. This is one part of the list.", "data": [{"test_system": "Plasmodium falciparum", "experiment": "Primary screen in NF54 nanoGlo assay, in single point, at 2uM, 72h; a lower Z score goes with more inhibition", "assay_type": "functional, Erythrocyte", "conditions": "timepoint 72 hour", "units": {"% Inhibition": "%"}, "values": [{"compound": "Cc1ccc(-c2ccc3nn(CC(=O)Nc4ccc(Br)cc4)c(=O)n3n2)cc1C", "% Inhibition": -10, "Z score": 0.95}, {"compound": "Cc1oc(CNC(=O)c2ccc(F)cc2F)nc1C(=O)N1CCC(C)CC1", "% Inhibition": -5, "Z score": 0.65}, {"compound": "Cc1cc(Oc2ccc(NC(=O)c3oc(C)nc3C)cc2)n[nH]1", "% Inhibition": 29, "Z score": -3.9}, {"compound": "Cc1[nH]nc(-c2ccsc2)c1NC(=O)Cc1ccccc1", "% Inhibition": -2, "Z score": 0.42}, {"compound": "CC(NC(=O)C1CC1c1ccccc1)C1CC2CCC1C2", "note": "(stereo unspecified)", "% Inhibition": -10, "Z score": 1.17}, {"compound": "N#Cc1ccc(CNC(=O)N2CCCCCCC2)cc1", "% Inhibition": 6, "Z score": -0.8}, {"compound": "O=C(CN1C(=O)CCC1=O)N1CCN(Cc2ccoc2)CC1", "% Inhibition": 9, "Z score": -0.73}, {"compound": "CC(C)Nc1cc(NCc2csc(N)n2)ncn1", "% Inhibition": -10, "Z score": 1.98}, {"compound": "Cc1c(Cl)cccc1S(=O)(=O)N1CC[C@H](N2CCc3ccccc3C2)C1", "% Inhibition": -10, "Z score": 1.89}, {"compound": "C[C@@H](Cn1ccnc1)NC(=O)c1ccc2c(c1)OCO2", "% Inhibition": -9, "Z score": 1.51}, {"compound": "c1cncc(CNCC2CC23CCc2ccccc23)c1", "note": "(stereo unspecified)", "% Inhibition": -7, "Z score": 0.95}, {"compound": "Cn1cc(C(=O)N2CC(F)(F)C[C@H]2COc2ccc3c(c2)CCC3)cn1", "% Inhibition": -13, "Z score": 2.28}, {"compound": "Cc1ncc(C(=O)N(CCOc2ccccc2)C[C@H]2CCCO2)c(C)n1", "% Inhibition": -8, "Z score": 1.55}, {"compound": "CCc1c(C)sc(NC(=O)c2noc3c2C[C@@H](C(C)(C)C)CC3)c1C#N", "% Inhibition": -7, "Z score": 1.36}, {"compound": "COc1ccc(N2Cc3nn(CC(=O)N(C)c4ccccc4)c(=O)n3C2=O)cc1", "% Inhibition": -10, "Z score": 1.26}, {"compound": "O=C(C1CCCCC1)N1CC(N(Cc2ccccn2)C(=O)Nc2ccccc2)C1", "% Inhibition": -1, "Z score": 0.13}, {"compound": "C=CCN1C[C@H]2CN(Cc3cc(OC)c(OCC)cc3Cl)C[C@@]2(C(=O)O)C1", "% Inhibition": -11, "Z score": 1.46}, {"compound": "C=CCn1nc(C(=O)N2CCN(C)CC2)c2c1CC[C@H](N1CCC(C)CC1)C2", "% Inhibition": -13, "Z score": 1.49}, {"compound": "C[C@H](NC(=O)C1CCCC1)C(=O)NC1(C)CCCC1", "% Inhibition": -11, "Z score": 1.58}, {"compound": "O=C(NCc1nc(Cc2cccs2)no1)N1CCS(=O)(=O)CC1", "% Inhibition": -10, "Z score": 1.84}, {"compound": "Cc1cccc(NC(=O)NC2CCN([C@@H](C)c3ccncc3)CC2)n1", "% Inhibition": -9, "Z score": 0.95}, {"compound": "CC(C)(C)C(=O)CNC(=O)C1(Oc2ccc3ncccc3c2)CCNCC1", "% Inhibition": -14, "Z score": 1.36}, {"compound": "CN(C)c1ccccc1NC(=O)NC1CCCCC1", "% Inhibition": 1, "Z score": -0.22}, {"compound": "COc1cnc(-c2cccc(C(F)(F)F)c2)nc1Oc1ccccc1", "% Inhibition": -5, "Z score": 0.6}, {"compound": "CC(C)C[C@@H]1NC(=O)[C@@H](Cc2ccccc2)NC(=O)Cc2ccc(F)c(c2)Oc2ccc(cc2)C[C@@H](C(=O)N(C)Cc2cccnc2)NC1=O", "% Inhibition": -18, "Z score": 2.32}, {"compound": "CN(Cc1cccnc1)c1cc([C@H]2C[C@@H](N)C2)nc(N2CCCC2)n1", "% Inhibition": 19, "Z score": -2.83}, {"compound": "COc1ccc(C(=O)N[C@@H]2CCC[C@@H]2C(=O)N2CCN(C(=O)c3ccco3)CC2)cn1", "% Inhibition": -5, "Z score": 0.71}, {"compound": "O=C(CN1C(=O)COc2ccc(C(=O)N3CCCC3)cc21)N1CCN(c2ncccn2)CC1", "% Inhibition": -4, "Z score": 0.47}, {"compound": "Cc1cc(F)ccc1S(=O)(=O)N1CC2CCC1(CN)CC2", "% Inhibition": 2, "Z score": -0.21}, {"compound": "Cn1ccnc1C(O)C1CCCN(CC(=O)NCC(F)(F)F)C1", "note": "(stereo unspecified)", "% Inhibition": 0, "Z score": 0.05}, {"compound": "N#Cc1cccnc1N(CC(=O)N1CCCC1)C[C@H]1CCCO1", "% Inhibition": -5, "Z score": 0.7}, {"compound": "Cn1nnnc1-c1ccc(NC(=O)N2CC[C@H]2C2CCCC2)cc1", "% Inhibition": -1, "Z score": 0.16}, {"compound": "COc1cccc(-c2nc(C(N)=O)c3c(n2)n(-c2ccc(C)c(C)c2)c(=O)n3Cc2ccccc2)c1", "% Inhibition": -6, "Z score": 0.72}, {"compound": "CC(C)c1nccc(CN(C)Cc2ccc(CN(C)C)cc2)n1", "% Inhibition": 2, "Z score": -0.46}, {"compound": "CC(=O)N(c1ccc2oc(=O)sc2c1)S(=O)(=O)c1cccs1", "% Inhibition": -35, "Z score": 4.73}, {"compound": "CC(C)=CCN1CC2(CCN(c3nc(C(N)=O)cs3)CC2)CC1=O", "% Inhibition": -1, "Z score": 0.13}, {"compound": "Cc1ccc(NC(=O)N2CCCCCCC2)c(Cl)c1", "% Inhibition": -6, "Z score": 0.75}, {"compound": "Cc1c(C2=NO[C@H]3C(=O)N(c4ccc(Cl)cc4)C(=O)[C@@H]23)cnn1C", "% Inhibition": -7, "Z score": 1}, {"compound": "O=C(c1ccncc1F)N1CCN(c2cnsn2)CC1", "% Inhibition": -22, "Z score": 2.79}, {"compound": "COCc1noc(CNS(=O)(=O)c2cccc(C(=O)N3CCCC3)c2)n1", "% Inhibition": -9, "Z score": 1.68}, {"compound": "CC(=O)N(CCN1CCOCC1)CC(=O)Nc1nc(-c2ccccc2)cn1-c1ccc(C(C)C)cc1", "% Inhibition": -2, "Z score": 0.28}, {"compound": "Cc1ccc(S(=O)(=O)N2CCC([C@H](NC(=O)c3cccs3)C(=O)N3CCCCC3)CC2)cc1", "% Inhibition": -7, "Z score": 1.28}, {"compound": "COC(=O)c1ccc(NC(=O)NCC2(O)CCCCC2)cc1Cl", "% Inhibition": -3, "Z score": 0.38}, {"compound": "CCOC[C@@H](O)Cn1nnnc1-c1ccccn1", "% Inhibition": -9, "Z score": 1.29}, {"compound": "COCCN1C[C@@H](CNC(=O)Nc2cccc3nsnc23)CC1=O", "% Inhibition": -4, "Z score": 0.67}, {"compound": "CCn1ncnc1[C@H](C)NC(=O)c1ccnc(C(C)C)n1", "% Inhibition": -12, "Z score": 1.87}, {"compound": "COCCN(C/C=C/c1ccc(OC)cc1)CC1CCN(Cc2ccccc2OC)CC1", "% Inhibition": -7, "Z score": 1.06}, {"compound": "O=C(N[C@@H]1CCC[C@H]1OCc1ccccc1)c1cnn[nH]1", "% Inhibition": -5, "Z score": 0.88}, {"compound": "CCN1Cc2ccccc2C[C@H]1c1nc(-c2ccco2)nn1CCO", "% Inhibition": -6, "Z score": 1.06}, {"compound": "O=C(NCCc1ccc2c(c1)OCO2)C1CC2CCC1C2", "note": "(stereo unspecified)", "% Inhibition": -4, "Z score": 0.49}, {"compound": "CC(C)n1cc2cc(C(=O)NCCc3ccc(Cl)cc3)sc2c1", "% Inhibition": 1, "Z score": -0.23}, {"compound": "N#Cc1ccccc1C(=O)N1C[C@H]2CCC[C@@H](C2)C1", "% Inhibition": -9, "Z score": 1.57}, {"compound": "Clc1ccc(-c2cc3c(N4CCCCCC4)nccn3n2)cc1", "% Inhibition": -4, "Z score": 0.53}, {"compound": "C#C[C@@H](NC(=O)c1cnc2n1CCOC2)C1CCOCC1", "% Inhibition": -11, "Z score": 1.63}, {"compound": "COC[C@@H]1[C@H](C(=O)NC2CCCC2)CCC(=O)N1C", "% Inhibition": -4, "Z score": 0.47}, {"compound": "O=C(Nc1ccc(N2C(=O)CCCC2=O)cc1)c1cc(-c2cccc(Cl)c2)no1", "% Inhibition": -13, "Z score": 1.36}, {"compound": "Cc1nc([C@H]2CCC(=O)N(C3CCCC3)C2)n(CC(F)(F)F)n1", "% Inhibition": -3, "Z score": 0.56}, {"compound": "CC(C)(C)OC(=O)N[C@@H](CC(=O)OCCc1ccc(F)cc1)C1CC1", "% Inhibition": -6, "Z score": 1.04}, {"compound": "COc1ccc(NC(=O)Cn2ccn3nc4c(c3c2=O)CCCCC4)cc1Cl", "% Inhibition": -6, "Z score": 0.76}, {"compound": "COc1ccc(N2CCN(C(=O)c3cc(C)nc4c(C)cc(C)cc34)CC2)cc1", "% Inhibition": 2, "Z score": -0.33}, {"compound": "O=C1CC[C@H](COc2ncccc2Br)N1", "% Inhibition": -11, "Z score": 1.43}, {"compound": "CC[C@H](C)NC(=O)CCNCC=Cc1ccco1", "% Inhibition": 5, "Z score": -0.62}, {"compound": "C[C@@H](CN(C)c1nccc(C2CCCC2)n1)N1CCOCC1", "% Inhibition": -6, "Z score": 1.14}, {"compound": "C[C@@H]1OCCO[C@@H]1C(=O)N(CC1CCCCC1)c1ccccn1", "% Inhibition": 1, "Z score": -0.26}, {"compound": "NC(=O)[C@H](CNC(=O)NCC(F)(F)F)Cc1ccccc1Cl", "% Inhibition": 3, "Z score": -0.43}, {"compound": "CCn1nc(C)c(-c2cc(C(=O)NCCN(C(C)=O)C3CCOCC3)no2)c1C", "% Inhibition": 2, "Z score": -0.29}, {"compound": "Cc1ccc(N2C(=O)CN(C(C)c3ccccc3)[C@H]3CS(=O)(=O)C[C@H]32)cc1", "note": "(stereo partly specified)", "% Inhibition": -7, "Z score": 1.09}, {"compound": "O=C(NCCc1ccoc1)C(=O)NCC(F)(F)F", "% Inhibition": -7, "Z score": 1.11}, {"compound": "NC(=O)c1cc(-c2cnc3ccccc3c2)cs1", "% Inhibition": -5, "Z score": 0.68}, {"compound": "Cc1ccc(S(=O)(=O)NCCc2nc(-c3ccc(-c4csc(C)n4)cc3)no2)cc1", "% Inhibition": -18, "Z score": 1.8}, {"compound": "C[C@H]1CN(C(=O)Nc2cccc(-c3cscn3)c2)CCCO1", "% Inhibition": -13, "Z score": 1.91}, {"compound": "CN(Cc1ccccn1)c1ccnc2cc(F)cnc12", "% Inhibition": 5, "Z score": -0.61}, {"compound": "CCCn1nc(C)cc1CN(C)C(=O)[C@@H]1CC2(CN(Cc3ccccc3)C2)CN1C", "% Inhibition": -6, "Z score": 0.69}, {"compound": "CCCN(Cc1c(C)nn(-c2ccccc2)c1Oc1ccc(Cl)cc1)C(=O)c1cccc(F)c1", "% Inhibition": -9, "Z score": 1.27}, {"compound": "COCC(C)(C)NC(=O)CCc1ccc(N(C)C)cc1", "% Inhibition": 1, "Z score": -0.2}, {"compound": "COCCCN1C(=O)CN(S(=O)(=O)c2ccccc2)C[C@@]1(C)C(=O)NCCC(C)C", "% Inhibition": 1, "Z score": -0.14}, {"compound": "O=C(NCCCn1cncn1)NCC1(c2ccccc2)CC1", "% Inhibition": -2, "Z score": 0.2}, {"compound": "Cc1ccc(C2(c3ccc(C)cc3)O[C@@H](c3ccccc3Cl)Nc3ccccc32)cc1", "% Inhibition": -3, "Z score": 0.42}, {"compound": "COc1ccc2c(c1)CCc1c(C(=O)Nc3cccc(CCc4nc5ccccc5[nH]4)c3)n[nH]c1-2", "% Inhibition": 3, "Z score": -0.3}, {"compound": "N#CC1(C#N)CC(C(=O)c2ccccc2)C(c2ccccc2)C(C(=O)c2ccccc2)C1", "note": "(stereo unspecified)", "% Inhibition": 7, "Z score": -0.86}, {"compound": "Cn1nccc1CNC(=O)c1ccccc1COc1ccc(F)cc1F", "% Inhibition": -8, "Z score": 1.07}, {"compound": "Oc1ccccc1-c1cc(-c2ccccc2)nn1Cc1ccc(Cl)cc1", "% Inhibition": 8, "Z score": -0.85}, {"compound": "O=C(N[C@@H](Cc1ccccc1)c1nc(-c2ccc3c(c2)OCO3)no1)c1cccs1", "% Inhibition": 3, "Z score": -0.36}]}]}
